{
  "source": "PubChem BioAssay AID504339",
  "about": "(National Center for Advancing Translational Sciences (NCATS), 2011)",
  "note": "Where “and” joins values, the source holds several entries; their conditions need not be identical. Equal entries are not always repeated. Among all 390,000 compounds or so, about 17,000 (4.4%) were called active. The inconclusive results got no clear call from the source; some entries with a clear call stand among them for comparison. Calls follow the shape of the dose curve; as a rule, active = well fitted inhibition curve with a large enough effect; inconclusive = small, poorly fitted or top-dose-only effect; inactive = no such curve, though single readings can be large or run the other way. Where the call is inconclusive, the potency comes from a doubtful curve fit. Potency is read from the fitted curve at half-maximal effect; tags tell the direction and shape of the fitted curve.",
  "data": [
    {"molecular_target": "Lysine-specific demethylase 4A (Homo sapiens) (UniProt O75164)", "sequence (O75164 whole entry, looked up, the tested form may be a part)": "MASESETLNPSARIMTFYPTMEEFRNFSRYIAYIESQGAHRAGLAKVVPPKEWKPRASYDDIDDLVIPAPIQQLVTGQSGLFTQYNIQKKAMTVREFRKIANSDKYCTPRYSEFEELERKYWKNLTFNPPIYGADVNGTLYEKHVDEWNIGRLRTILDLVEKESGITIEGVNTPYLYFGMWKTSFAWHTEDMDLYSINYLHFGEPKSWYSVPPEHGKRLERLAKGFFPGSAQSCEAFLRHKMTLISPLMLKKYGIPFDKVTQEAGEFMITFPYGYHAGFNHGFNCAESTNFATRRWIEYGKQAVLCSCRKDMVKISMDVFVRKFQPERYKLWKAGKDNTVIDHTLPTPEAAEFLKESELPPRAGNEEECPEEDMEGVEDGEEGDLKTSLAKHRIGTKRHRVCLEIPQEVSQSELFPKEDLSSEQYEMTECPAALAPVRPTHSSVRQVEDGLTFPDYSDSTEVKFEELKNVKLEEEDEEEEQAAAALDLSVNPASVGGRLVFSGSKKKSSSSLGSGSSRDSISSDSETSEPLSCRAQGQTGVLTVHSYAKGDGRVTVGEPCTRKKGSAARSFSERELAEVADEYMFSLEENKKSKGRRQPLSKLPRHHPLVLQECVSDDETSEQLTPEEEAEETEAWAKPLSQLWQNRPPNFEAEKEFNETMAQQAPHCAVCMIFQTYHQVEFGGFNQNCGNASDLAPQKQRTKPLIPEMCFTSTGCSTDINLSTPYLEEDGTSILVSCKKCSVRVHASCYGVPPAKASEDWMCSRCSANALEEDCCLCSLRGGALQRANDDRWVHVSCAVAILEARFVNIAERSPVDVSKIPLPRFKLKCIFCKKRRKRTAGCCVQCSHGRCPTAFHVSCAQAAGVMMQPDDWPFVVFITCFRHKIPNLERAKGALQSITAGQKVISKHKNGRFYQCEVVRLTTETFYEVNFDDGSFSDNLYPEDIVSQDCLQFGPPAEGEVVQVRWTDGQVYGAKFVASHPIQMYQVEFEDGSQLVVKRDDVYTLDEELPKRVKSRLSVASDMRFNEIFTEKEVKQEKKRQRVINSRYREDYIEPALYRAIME", "experiment": "qHTS Assay for Inhibitors of JMJD2A-Tudor Domain; also: nearly all actives have a fitted effect of over 50% in size", "settings": "AlphaScreen JMJD2A-Tudor / H3K4me3 peptide binding; series mostly up to 114 µM", "values": [
      {"smiles": "C/C(=N\\O)C(=O)NCCN(C)C", "Potency": "active: 7.94 µM"},
      {"smiles": "Cc1ccc(N2CC(C(=O)Nc3ccc(N(C)C)cc3)CC2=O)cc1Cl", "note": "(stereo unspecified)", "Potency": "inactive"},
      {"smiles": "Cc1c(Cl)cnc(NC(=O)COC(=O)c2ccc3ncsc3c2)c1Cl", "Potency": "inconclusive: 79.4 µM [inhibitor, partial curve]"},
      {"smiles": "Cc1cc(NCCCn2ccnc2)n2nc(C)c(-c3ccccc3)c2n1", "Potency": "inconclusive: 79.4 µM [inhibitor, partial curve]"},
      {"smiles": "O=C(Cc1nn[nH]n1)NCCC1=CCCCC1", "Potency": "active: 50.1 µM"},
      {"smiles": "Cc1cccc(C2CC(=O)Nc3cc4c(cc32)OCO4)c1", "note": "(stereo unspecified)", "Potency": "inconclusive: 56.2 µM [inhibitor, partial curve]"},
      {"smiles": "O=C(/C=C/c1ccco1)NCCCN1CCOCC1", "Potency": "inactive"},
      {"smiles": "COc1ccccc1OCC(=O)Nc1oc(-c2ccccc2)c(-c2ccccc2)c1C#N", "Potency": "inconclusive: 79.4 µM [inhibitor, partial curve]"},
      {"smiles": "COc1cccc(C(C)NC(=O)Cc2cccs2)c1", "note": "(stereo unspecified)", "Potency": "inconclusive: 22.4 µM [inhibitor, single point]"},
      {"smiles": "CCN1CCN(c2ccc(S(=O)(=O)N3CCCCC3)cc2NC(=O)/C=C/c2ccc([N+](=O)[O-])cc2)CC1", "Potency": "inconclusive: 14.1 µM [inhibitor, full curve]"},
      {"smiles": "Cc1ccc(/C=N/n2cc(-c3ccccc3)[nH]c2=S)s1", "Potency": "inconclusive: 39.8 µM [inhibitor, single point]"},
      {"smiles": "O=C(O)c1ccccc1C(=O)Nc1cc(C(F)(F)F)ccc1N1CCCC1", "Potency": "inconclusive: 56.2 µM [inhibitor, partial curve]"},
      {"smiles": "Cc1ccccc1/C=N/N1C(=O)CSC1=S", "Potency": "inconclusive: 89.1 µM [inhibitor, single point]"},
      {"smiles": "Cc1ccc(CN2CCN(/N=C/c3ccc(O)c(O)c3)CC2)cc1", "Potency": "active: 22.4 µM"},
      {"smiles": "CCn1c(C(=O)N2CCCC(C(=O)NCCc3ccc(C)cc3)C2)cc2sccc21", "note": "(stereo unspecified)", "Potency": "inactive"},
      {"smiles": "CCC(=O)N1CCc2cc(CNS(=O)(=O)c3ccc(Cl)s3)ccc21", "Potency": "inactive"},
      {"smiles": "NC(=S)NNc1ccc(Cl)c(Cl)c1", "Potency": "inconclusive: 15.8 µM [inhibitor, full curve]"},
      {"smiles": "CCOc1ccc(-n2c(SCC(=O)N3CCc4ccccc43)nnc2-c2c[nH]c3ccccc23)cc1", "Potency": "inconclusive: 89.1 µM [inhibitor, partial curve]"},
      {"smiles": "O=C(Nc1ccc2ccccc2n1)c1ccc(Cl)cc1", "Potency": "inconclusive: 89.1 µM [inhibitor, single point]"},
      {"smiles": "N#CCCN(Cc1ccccc1)C(=S)NC(=O)c1ccccc1", "Potency": "inconclusive: 79.4 µM [inhibitor, partial curve]"},
      {"smiles": "CCOc1ccccc1/C=N/NC(=O)Cc1csc(Nc2cccc(C(F)(F)F)c2)n1", "Potency": "inconclusive: 56.2 µM [inhibitor, partial curve, poor fit]"},
      {"smiles": "C=CCNC(=S)N/N=C(\\C)c1cccnc1", "Potency": "inactive"},
      {"smiles": "CCC(OC(=O)CNS(=O)(=O)c1ccccc1)C(=O)c1ccccc1", "note": "(stereo unspecified)", "Potency": "inactive"},
      {"smiles": "CCOc1ccc2oc(=O)cc(CN3CCN(C(=O)c4ccc(Cl)cc4)CC3)c2c1", "Potency": "inactive"},
      {"smiles": "CCN1CCN(c2ccc(S(=O)(=O)N3CCOCC3)cc2NC(=O)c2ccc(Cl)cc2Cl)CC1", "Potency": "inactive"},
      {"smiles": "COC(=O)[C@]1(CC(C)C)N[C@H](c2ccc(-c3ccc(F)cc3)c(OC)c2)[C@@H]2C(=O)N(C)C(=O)[C@@H]21", "Potency": "inconclusive: 89.1 µM [inhibitor, partial curve]"},
      {"smiles": "Cc1ccccc1OCCn1cc(C(=S)N2CCCC2)c2ccccc21", "Potency": "inconclusive: 89.1 µM [inhibitor, single point]"},
      {"smiles": "O=C(NN=C1CCCCCCC1)c1ccc(F)cc1", "Potency": "inconclusive: 10 µM [inhibitor, full curve, poor fit]"},
      {"smiles": "CCOc1ccc(NC(=O)c2cc(CN3CCCC3)on2)cc1", "Potency": "inactive"},
      {"smiles": "COc1ccc(/C=C/C(=O)Nc2ccc(Cl)c(Cl)c2)cc1OC", "Potency": "inactive"},
      {"smiles": "OCc1c[nH]c(=S)n1CCOc1cccc(C(F)(F)F)c1", "Potency": "active: 22.4 µM"},
      {"smiles": "COc1ccc(-c2ccc(=O)n(CC(=O)Nc3ccc(N(C)C)cc3)n2)cc1", "Potency": "active: 56.2 µM"},
      {"smiles": "CC[n+]1c(C)cc2c(sc3ccccc32)c1C", "Potency": "inconclusive: 39.8 µM [inhibitor, single point]"},
      {"smiles": "CC1(C)CC[C@]2(C(=O)n3ccnc3)CC[C@]3(C)[C@H](C(=O)C=C4[C@@]5(C)C=C(C#N)C(=O)C(C)(C)[C@@H]5CC[C@]43C)[C@@H]2C1", "Potency": "inconclusive: 56.2 µM [inhibitor, partial curve, poor fit]"},
      {"smiles": "CN1CCc2c(OCC(=O)N3CCC(Cc4ccccc4)CC3)cccc2C1=O", "Potency": "inconclusive: 56.2 µM [inhibitor, partial curve]"},
      {"smiles": "CN1CCN(CCCNCc2cn(CCC#N)c3ccccc23)CC1", "Potency": "inconclusive: 22.4 µM [inhibitor, single point]"},
      {"smiles": "O=C(Nc1nnc(S(=O)(=O)N2CCCC2)s1)c1ccccc1Cl", "Potency": "inconclusive: 28.2 µM [inhibitor, partial curve] and inconclusive: 100 µM [inhibitor, single point]"},
      {"smiles": "O=[N+]([O-])c1ccc(C2CCCC/C2=N/OCc2ccccc2F)c([N+](=O)[O-])c1", "note": "(stereo unspecified)", "Potency": "inconclusive: 35.5 µM [inhibitor, partial curve]"},
      {"smiles": "O=C(CCN1C(=O)/C(=C/c2ccco2)SC1=S)Nc1ccc(C(=O)O)c(O)c1", "Potency": "active: 50.1 µM"},
      {"smiles": "NC(=S)NN=C1c2cc(Cl)ccc2-c2c1cc(Cl)cc2[N+](=O)[O-]", "Potency": "inconclusive: 22.4 µM [inhibitor, full curve, poor fit]"},
      {"smiles": "COc1cc(-c2nc3ccccn3c2/N=C/c2ccccc2)ccc1O", "Potency": "inconclusive: 50.1 µM [inhibitor, partial curve]"},
      {"smiles": "COc1ccccc1Cn1[nH]nnc1=S", "Potency": "active: 15.8 µM"},
      {"smiles": "CC(C)(C)OC(=O)N/N=C/c1cc(N=Nc2ccccc2)ccc1O", "Potency": "inconclusive: 15.8 µM [inhibitor, full curve, poor fit]"},
      {"smiles": "Fc1c(CSC(=S)N2CCOCC2)cccc1CSC(=S)N1CCOCC1", "Potency": "inactive"},
      {"smiles": "Cc1n[nH]c(=O)n1-c1ccc(OC(F)(F)F)cc1", "Potency": "inactive"},
      {"smiles": "COc1ccc(OC)c(NC(=O)c2cc3ccccc3cc2OC)c1", "Potency": "inconclusive: 79.4 µM [inhibitor, partial curve]"},
      {"smiles": "CC(=O)N1CCN(C(=O)c2ccc(OC3CCN(Cc4ccccn4)CC3)cc2)CC1", "Potency": "inactive"},
      {"smiles": "Cc1ccc(CCN2CC(C(=O)NCCN(C)C)CC2=O)cc1", "note": "(stereo unspecified)", "Potency": "inactive"},
      {"smiles": "COc1ccccc1CN1CCN(Cc2ccco2)CC1", "Potency": "active: 3.98 µM"},
      {"smiles": "CCN(C(=O)COC(=O)CSc1ccc([N+](=O)[O-])cc1)C1CCS(=O)(=O)C1", "note": "(stereo unspecified)", "Potency": "active: 35.5 µM"},
      {"smiles": "CCOc1ccc(NC2=NC(C)(C)N=C(N)N2)cc1", "Potency": "inconclusive: 89.1 µM [inhibitor, single point]"},
      {"smiles": "Nc1c(-c2ccccn2)cnn1-c1nc(-c2ccc(F)cc2)cs1", "Potency": "inactive"},
      {"smiles": "N=c1n(CCN2CCCC2)c2ccccc2n1CC(O)c1ccc(Cl)c(Cl)c1", "note": "(stereo unspecified)", "Potency": "inconclusive: 50.1 µM [inhibitor, partial curve]"},
      {"smiles": "Nc1cc(Cl)ccc1N1CCCC1", "Potency": "inconclusive: 56.2 µM [inhibitor, partial curve, poor fit]"},
      {"smiles": "CC(C)COC(=O)Nc1nnc(Cc2ccccc2)s1", "Potency": "active: 17.8 µM"},
      {"smiles": "O=C(NC(=S)Nc1ccccc1N1CCOCC1)c1cccs1", "Potency": "inconclusive: 56.2 µM [inhibitor, partial curve]"},
      {"smiles": "O=C(O)Cn1c2c(c3ccccc31)CSc1ccc(Cl)cc1-2", "Potency": "inconclusive: 2.82 µM [inhibitor, full curve]"},
      {"smiles": "O=C(NNS(=O)(=O)c1ccccc1)c1ccc(S(=O)(=O)N2CCCCC2)cc1", "Potency": "inconclusive: 39.8 µM [inhibitor, single point]"},
      {"smiles": "CNC(=S)N1CCc2cc(OC)c(OC)cc2C1COc1ccc(OC)cc1", "note": "(stereo unspecified)", "Potency": "inconclusive: 28.2 µM [inhibitor, partial curve, poor fit]"},
      {"smiles": "COc1ccc(C(=O)CSc2nnc(-c3ccccn3)n2Cc2ccco2)cc1", "Potency": "inconclusive: 22.4 µM [inhibitor, full curve]"},
      {"smiles": "CC1(C)Cc2c(c(N3CCOCC3)nc3sc4c(NN)ncnc4c23)CS1", "Potency": "inconclusive: 63.1 µM [inhibitor, partial curve]"},
      {"smiles": "O=C(O)CC(C(=O)N(c1ccccc1)c1ccccc1)N1CCOCC1", "note": "(stereo unspecified)", "Potency": "inconclusive: 20 µM [inhibitor, single point]"},
      {"smiles": "O=C1[C@H]2[C@H](C=CC[C@H]2C(=O)N2CCN(c3ccccc3)CC2)CCN1Cc1ccc(Cl)c(Cl)c1", "Potency": "inconclusive: 44.7 µM [inhibitor, partial curve]"},
      {"smiles": "Cc1ccc(C)c(OCCCCN2CCCCC2)c1", "Potency": "active: 31.6 µM"},
      {"smiles": "COc1ccc(C(NC(C)=O)c2cc(Cl)c3cccnc3c2O)cc1OC", "note": "(stereo unspecified)", "Potency": "active: 56.2 µM"},
      {"smiles": "COc1ccc(C2NC(C(=O)O)Cc3c2[nH]c2ccccc32)cc1CN1CCN(c2ccc(F)cc2)CC1", "note": "(stereo unspecified)", "Potency": "inconclusive: 56.2 µM [inhibitor, partial curve]"},
      {"smiles": "CCCn1cnc2cc(NCc3cccc(OC)c3O)ccc21", "Potency": "inconclusive: 56.2 µM [inhibitor, partial curve]"},
      {"smiles": "COc1ccc(N2CCN(C(CNC(=O)C(=O)NCC(OC)OC)c3ccco3)CC2)cc1", "note": "(stereo unspecified)", "Potency": "inactive"},
      {"smiles": "CCN(CCCNC(=O)c1cc2cc3cc(OC)ccc3nc2s1)c1ccccc1", "Potency": "inconclusive: 7.94 µM [inhibitor, full curve, poor fit]"},
      {"smiles": "CC(C)c1ccc(C(O)P(=O)(OC2CCCCC2)OC2CCCCC2)cc1", "note": "(stereo unspecified)", "Potency": "inactive"},
      {"smiles": "CN1CCN(C(=S)c2cn(Cc3ccccc3F)c3ccccc23)CC1", "Potency": "inconclusive: 70.8 µM [inhibitor, partial curve]"}
    ]}
  ]
}
